In all, about 48,000 compounds went through this assay and about 1,200 (2.5%) were called active. Another 2% or so got no clear call; they are omitted.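 How the source made its calls: active means activation of at least 60% and not above a set upper limit (about 1 call in 100 departs from these limits); inconclusive means activation of 40% to 60%, or above that upper limit; inactive means activation under 40%.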 Some of the results follow.
These compounds were tested against Probable G-protein coupled receptor 32 (Homo sapiens) (UniProt O75388) (assay: qHTS for Agonists of Human Resolvin D1 Receptor DRV1). Details: CHO-K1 GPR32 beta-arrestin PathHunter luminescence, 90 min; at 76.9 µM; hits give high values; zero percent set by DMSO-only wells.
UniProt O75388, sequence (O75388 whole entry, looked up, the tested form may be a part): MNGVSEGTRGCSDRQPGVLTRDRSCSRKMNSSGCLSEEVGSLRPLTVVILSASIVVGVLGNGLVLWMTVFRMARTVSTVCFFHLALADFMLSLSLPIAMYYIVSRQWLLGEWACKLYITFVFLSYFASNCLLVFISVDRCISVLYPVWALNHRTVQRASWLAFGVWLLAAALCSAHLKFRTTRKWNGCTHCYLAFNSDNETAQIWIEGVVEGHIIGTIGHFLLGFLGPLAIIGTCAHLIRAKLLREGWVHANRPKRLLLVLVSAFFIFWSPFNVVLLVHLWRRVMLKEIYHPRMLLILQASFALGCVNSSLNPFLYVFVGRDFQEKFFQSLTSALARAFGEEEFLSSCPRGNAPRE
In short: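 GPR32 activation in stably transfected CHO-K1 cells, detected as beta-arrestin recruitment by enzyme-fragment complementation. Compound exposure: 90 min, 37 °C.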
Further: 0% is about no effect.

activation, inactive:
Cc1cccc(C)c1Nc1sc(C(=O)c2ccccc2)c(N)c1S(=O)(=O)c1ccccc1 -27.7%, O=C(O)c1ccc(NC(=O)c2ccc(Cl)c(S(=O)(=O)N3CCCCCC3)c2)cc1 14.6%, CN(C1CCCCC1)S(=O)(=O)c1ccc2c(c1)c(=O)c(C(=O)N1CCN(c3ccccc3)CC1)cn2C 38.1%, COC(=O)c1ccc(NC(=O)C(C)Sc2nc(=O)cc(N)n2CCc2ccccc2)cc1 (stereo not given) -5.11%, O=S(=O)(NCCS(=O)(=O)N1CCN(c2ccccc2)CC1)c1ccccc1 -1.79%, Cc1nc2c3ccccc3nc(NNC(=O)CCC(=O)O)n2n1 -11.3%, COc1ccc(CCNC(=O)c2ccc3c(c2)nc(C)n3-c2ccc(Br)cc2)cc1OC -2.89%, Cc1ccc(NC(=O)CN2C(=O)CCSc3ccccc32)c(C)c1 -5.29%, O=C(Nc1ccc(Cl)cc1Cl)c1cc(S(=O)(=O)NCc2ccc3c(c2)OCO3)ccc1F 49.4%, N#Cc1cc2nc(O)c(O)nc2cc1[N+](=O)[O-] 8.27%, Cc1ccc(Cn2c(CO)cnc2SCc2ccc(F)cc2)cc1 13.7%, Nc1ccc(S(=O)(=O)NCc2ccccc2)cc1 -8.11%, CN(C)C(N)=NCCC[C@H](N)C(=O)O 4.02%, Cc1ccccc1NC(=O)c1cc2c([nH]c1=O)CC(C)(C)CC2=O 8.55%, COc1ccccc1Cn1cc(C(=O)c2ccccc2)c(=O)c2cc(OC)c(OC)cc21 4.24%, COc1ccc(-c2cc(C(=O)Nc3cc(C(F)(F)F)ccc3Cl)no2)cc1 -5.76%, Cc1nn(CCC(=O)Nc2ccc(Cl)cc2)c(C)c1S(=O)(=O)N1CCCCC1 -3.44%, CCOc1ccc(C(=O)Nc2ccc(-c3cc4ccccc4oc3=O)cc2)cc1Br 10.8%, CN(C)c1ccc(CNC(=O)C2CCN(c3nnc(-n4cccc4)s3)CC2)cc1 9.49%, COC(=O)[C@H](NC(=O)c1cc(-c2ccccc2)nc2ccccc12)c1ccccc1 -27.8%, Cc1ccc2scc(N3CCCCC3C)c(=O)c2c1 (stereo not given) -13.9%, COc1ccc(Cn2c(SCC(=O)N3CCN(c4ccc(F)cc4)CC3)nc3ccccc32)cc1 -17.9%, O=C(CN1CCN(Cc2ccc(F)cc2)C1=O)NCc1ccc(F)cc1 -14.7%, N[C@H](Cc1c[nH]c2ccccc12)C(=O)O -0.614%, COc1ccc(CCNC(=O)CCCn2c(=O)c3ccccc3n(CC(=O)Nc3ccccc3C)c2=O)cc1OC 5.89%

Source: PubChem BioAssay AID1346428 (National Center for Advancing Translational Sciences (NCATS), 2018)
